The supplement of paper PMC3334620
Whole data set: some 33,000 sequences, median “E-score (-0.5 to 0.5)” near -0.012, cut for the highest 2% near 0.29. The list shows a part of the results.

Each sequence was assayed against T1, Ybr033w (UniProt P38073) (assay: PBM E-score (8-mer binding enrichment) (E-score (-0.5 to 0.5)); higher = stronger / more preferred TF binding; most listed sequences are background and not binding sites). Conditions: protein concentration: 200 nM; construct: GST-full length.
T1 sequence: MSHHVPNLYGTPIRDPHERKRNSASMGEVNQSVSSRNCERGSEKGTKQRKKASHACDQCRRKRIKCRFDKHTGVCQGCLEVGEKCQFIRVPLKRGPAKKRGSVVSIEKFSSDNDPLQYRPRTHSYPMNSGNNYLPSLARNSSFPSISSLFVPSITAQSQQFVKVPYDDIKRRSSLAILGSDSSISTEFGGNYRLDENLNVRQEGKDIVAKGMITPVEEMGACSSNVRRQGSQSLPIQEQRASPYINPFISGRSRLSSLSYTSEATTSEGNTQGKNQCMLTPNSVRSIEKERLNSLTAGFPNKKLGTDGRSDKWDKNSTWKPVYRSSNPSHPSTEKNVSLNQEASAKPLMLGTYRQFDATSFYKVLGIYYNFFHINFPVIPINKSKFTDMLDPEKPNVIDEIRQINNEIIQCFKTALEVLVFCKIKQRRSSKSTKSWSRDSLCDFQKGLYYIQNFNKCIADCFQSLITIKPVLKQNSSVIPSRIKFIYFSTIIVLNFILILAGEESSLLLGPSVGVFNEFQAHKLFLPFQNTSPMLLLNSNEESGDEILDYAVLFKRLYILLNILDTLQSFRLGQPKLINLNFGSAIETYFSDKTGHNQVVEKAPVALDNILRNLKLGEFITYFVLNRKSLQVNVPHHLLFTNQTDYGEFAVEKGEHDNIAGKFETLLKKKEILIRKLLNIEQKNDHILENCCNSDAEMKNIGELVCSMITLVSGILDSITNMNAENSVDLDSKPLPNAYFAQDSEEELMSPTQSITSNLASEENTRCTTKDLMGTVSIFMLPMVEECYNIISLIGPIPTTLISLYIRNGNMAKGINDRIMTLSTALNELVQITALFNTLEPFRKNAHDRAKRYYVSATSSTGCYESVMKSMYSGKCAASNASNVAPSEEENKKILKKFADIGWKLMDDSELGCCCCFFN
Method in brief: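 Masliner-normalised scans of fluorescent anti-GST signal were the basis for scoring. That signal came from GST-tagged yeast transcription factors applied at about 100-200 nM to double-stranded universal all-10-mer Agilent arrays on fresh or once-stripped slides. Each ungapped eight-base word, pooled with its reverse complement, received an E-score from the Universal PBM Analysis Suite.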

Point of comparison: AACATGCA, “PBM E-score” value 0.16. Against it:
- AGCAAACG — lower, -0.215
- ACCTAAGG — lower, -0.177
- ATGGGATG — lower, -0.13
- CTGGCACA — lower, -0.127
- ATTTTCGC — lower, 0.106
- AATAGCAC — lower, -0.215
- GCGTAGTA — lower, -0.147
- CAAATGAC — lower, -0.0187
- GTCATCAA — lower, -0.0385
- AACTCAAC — lower, 0.155
- GCCAGGCC — lower, -0.257
- CACTTGTC — lower, -0.0719
- GGGCTTTA — lower, -0.186
- ACGCTGAA — lower, -0.0284
- CTAGCCGA — lower, -0.0763
- GCGCCTCC — lower, -0.102
- TAACTCCA — lower, 0.0862
- AAGACCGT — lower, -0.131
- CTTATGGC — lower, -0.0697
- GTCCAACA — lower, 0.0495
- CTCGCTGC — lower, -0.0818
- AGTCCCGA — lower, -0.283
- AACGTCAT — lower, 0.0247
- AGTTAGGC — lower, 0.0352
- AGCATCAA — lower, 0.134
- ACGTCCGG — lower, -0.225
- CGAGACCG — lower, -0.0824
- GGCAATAC — lower, 0.114
- GCCTTCGA — lower, -0.0379
- AAAAGATA — higher, 0.206
- CCATCCCG — lower, -0.331
- CTTATCCA — lower, 0.0666
- ACCATGGC — lower, -0.0531
- GATTTGCA — lower, 0.0485
- AACCGATA — higher, 0.198
- TATCTCAA — higher, 0.32
- AACTCCTG — lower, -0.133
- ACATCTAG — lower, 0.136
- ATCAACAC — lower, 0.093
- CTTCATAC — lower, 0.0503
- CTGAAAGA — lower, 0.0365
- CCGTGCGA — lower, -0.0462
- TCTAGACA — lower, 0.102
- AAGCAGAC — lower, -0.13
- AGTGGAAA — lower, 0.146
- ACGTAAGA — lower, 0.0618
- GACTCGAA — lower, -0.0703
- TAATTCAA — higher, 0.21
- ATCGGGCC — lower, -0.322
- CTGTCGCC — lower, -0.151
- GCGAGTCC — lower, -0.202
- CTTGAGCC — lower, -0.0801
- AATCAACA — higher, 0.274
- CGCCTGGA — lower, -0.0495
- GAGCTCTA — lower, -0.173
- CTGTCAAA — lower, 0.0976
- ATAGGCAT — lower, -0.049
- ACTACTAT — higher, 0.328
- GTCACACA — lower, -0.0431
- GATGGCGC — lower, -0.192
- CGTGGATC — lower, -0.066
- AAATGGGA — lower, -0.0448
- CAAATTGG — higher, 0.275
- AGACGGCC — lower, -0.248
- GCGAAAAA — lower, 0.153
- CATCTAAG — lower, -0.0174
- AGACCTAC — lower, -0.016
- TCGATAAA — higher, 0.167
- CACTTTGG — lower, -0.00968
- GCCTTCAC — lower, -0.111
- AGGGGTTA — lower, -0.198
- GGCTTGAA — lower, -0.0336
- CCAACCCG — lower, -0.12
- AGACCCTG — lower, -0.13
- GGTTTTAA — higher, 0.212
- TAATCGAA — lower, 0.125
- CCTAGCTC — lower, -0.0965
- CAAGATGG — lower, -0.0299
- CCACTGCA — lower, -0.149
- GTGCTTTA — lower, 0.0785
- CCTTTGCC — lower, -0.204
- AATTCGTA — lower, 0.139
- GAGAGCGA — lower, -0.0834
- CACACATG — lower, -0.0642
- GGTGTGAA — higher, 0.228
- CCTAATAG — lower, 0.0136
- ACATTAGA — lower, 0.0894
- CGTTGCAG — lower, -0.118
- AATGGCGA — lower, 0.0772
- ACACCGTG — lower, -0.29
- CCGGTTGC — lower, 0.0373
- ATATAGAG — lower, -0.0546
- CAGAATCG — lower, 0.0472
- ACCTCCTA — lower, -0.101
- AGTTACAC — higher, 0.224
- GCAGGATA — lower, -0.103
- AGTTGGAT — higher, 0.288
- CGACATAC — lower, -0.124
- GACGGCAC — lower, -0.147
- GTAAAGTA — higher, 0.174
- GCACGACC — lower, -0.145
- CCAATGTA — lower, 0.0738
- AACCAGAG — lower, -0.0719
- CAAGTGTC — lower, 0.00092
- AAGCGGGT — lower, -0.0734
- ATTCCCTC — lower, 0.0513
- GAACAGAA — lower, 0.0638
- CCTTAAGA — lower, -0.0583
- AGCCGGAC — lower, -0.18
- CGCAGGTA — lower, 0.0594
- CGCCCCCC — lower, -0.434
- GGGGAGAA — lower, -0.101
- CCGGTTAA — lower, 0.0993
- CGTTACTC — lower, -0.102
- GACCCGAC — lower, -0.257
- TATCATGA — lower, 0.115
- ACCTAGAA — lower, 0.131
- CCAAACGG — lower, -0.136
- ACCTTATA — lower, 0.146
- GCCTTCCA — lower, -0.146
- AATTGGCC — lower, -0.129
- ATTTATAC — higher, 0.278
- CTCGGCCA — lower, 0.00302
- AAAGTTTG — higher, 0.239
- ATACAGCG — lower, -0.0516
- CTTATAAC — higher, 0.186
- GCTCAGTA — lower, 0.0903
- ACGAGTAA — higher, 0.266
- CTACCCAC — lower, -0.162
- ACTGCTGG — lower, -0.135
- CGTGCACC — lower, -0.206
- GATCACCC — lower, -0.117
- CTGCGAGA — lower, -0.279
- ACCTACTG — lower, -0.0357
- ACAATTCA — lower, 0.144
- ACACCTGC — lower, 0.0372
- ATGTATTC — lower, -0.00339
- TCCTGTAA — lower, 0.131
- ACGTACTG — lower, 0.00544
- CCCGGGCG — lower, -0.213
- CACGTAGG — lower, -0.205
- CGGAATTC — lower, 0.0496
- CTTATTAC — lower, 0.115
- ACCGTGCC — lower, -0.249
- CGCAGTGC — lower, -0.128
- TCAACAGA — higher, 0.225
- ACGTATCG — lower, 0.127
- AGCGAGAA — lower, -0.121
- ACGTGCTC — lower, -0.184
- ATACTAAC — lower, 0.123
- ACGGCTCA — lower, -0.0255
- CAGAAGCA — lower, 0.111
- GACAACAA — higher, 0.203
- AGCGGAAG — lower, -0.00882
- AGTGAAGA — lower, -0.00202
- GAGTGCAC — lower, -0.161
- AATTTTCC — higher, 0.468
- AGAGATAT — lower, 0.11
- GGGAGCCC — lower, -0.317
- AGCCATGA — lower, -0.16
- AACATTTA — higher, 0.296
- CAGATTAG — lower, -0.134
- TAACTTCA — higher, 0.235
- CTGTTGTA — lower, 0.086
- AAAGAACA — higher, 0.241
- CCTATAAA — lower, -0.11
- CGGGAAAA — higher, 0.298
- GCCGGCGA — lower, -0.274
- CCAGTGCC — lower, -0.182
- ATTTTGCA — higher, 0.191
- AGCCGTAT — lower, 0.0812
- GACCGGCC — lower, -0.317
- AATCAAAA — higher, 0.225
- CCGCGCAC — lower, -0.0688
- GAGGCAGA — lower, -0.174
- ACGTAGTC — lower, -0.17
- CCCGCCGG — lower, -0.223
- CAATTAAC — higher, 0.224
- ACGCAGCC — lower, -0.0524
- AAAAGCCG — lower, -0.0582
- AAATTAGT — higher, 0.206
- GTTCCGCA — lower, 0.114
- AGGTGGAC — lower, -0.104
- GAACGGTA — lower, -0.0164
- AATTGGCA — lower, -0.0873
- AGGGGTTC — lower, -0.244
- ATCTTGAC — lower, 0.0394
- CCAGTACA — lower, 0.112
- CGTGAATC — lower, -0.132
- GGTCCAGA — lower, -0.216
- ACGATGCG — lower, -0.103
- AAGTAGAT — higher, 0.24
- CGCTCACG — lower, -0.108
- ACGTGAAT — lower, -0.0299
- ACTGCCTG — lower, 0.0181
- AACGTACG — lower, 0.0287
- GCGGCTAC — lower, -0.266
- CGTCTACC — lower, -0.101
- CGTTTTCA — lower, 0.0232
- GTGTTCGA — lower, -0.084
- AAACGTCC — lower, -0.117
- ATAAAATA — higher, 0.344
- CCGCCCCG — lower, -0.0589
- GATTGGGA — lower, -0.181
- CTCATACC — lower, 0.058
- GATGTCGC — lower, -0.152
- CTGGTGGC — lower, -0.13
- CGCTAGTA — lower, 0.0929
- ACTTCTTG — lower, -0.00264
- GCTTCACA — lower, 0.0152
- AATCTCAG — lower, -0.153
- GCGAGCAC — lower, -0.0952
- GCTCAAAC — lower, 0.0775
- ATTATGAA — higher, 0.238
- AGTCGCAT — lower, 0.107
- CCTCACAG — lower, -0.0245
- GTTTGGTA — lower, 0.139
- AGTTCACC — lower, 0.0995
